Read counts are not given, so values of variants with three or more changes are uncertain.
B1: LINE1-mini (parent)
chain: GGCAGAGCUCAACACAGCGUGGCAAAGUGGCUGUGGCUAGACUGCC

Variants of: B1
Experiment: self-cleavage, relative activity (ratio to wild type); higher = more cleavage; in vitro, sequencing; the parent is a self-cleaving ribozyme

Variant | self-cleavage
GGCAGAGCUUUACACAGCGUGGCCAUGUGGCUGUGGCUAGACUGCU | 0.01
GGCAGAGCUUUACACAGCGUGGGAAAGUGACUGUAGCUAGACUGCC | 0
GGCAGAGCUUUACACAGCGUGGCAAAGGGGCUGUGCCUAGACUGCC | 0.03
GGCAGAGCUUACCGCAGCGUGGCAAAGUGGCUGUGUCUAGACUGCC | 0.03
GGCAGAGCUUACCACAGCGUGGCAAAGUGGCUGUGGCUAGACUGAA | 0.02
GGCAGAGCUUACCACAACGUGGGAACGUGGCUUUGACUAGACUGCC | 0.01
GGCAGAGCUUACCACAGCGUGGCAAAUUGGCUGUGGCUAGACUGCC | 0.01
GGCAGAGCUUAGCAAAGCGUGGCAAAGUGGCUGUGGCUAGACUGCC | 0.03
GGCAGAGCUUAGCAAAGCGUGGCAAAGUGGCUGUGACUAGAUUGCC | 0.02
GGCAGAGCUUAUCAAAGCGUGGCAAAGUGGCUGUCGCUAGACUGCC | 0.03
GGCAGAGCUUAUCACAGCGUGGGAAAGUGGCUGUGGCUAGACUGCC | 0.04
GGCAGAGCUUAUCACAGCCUGGCAAAGUGGCUGUGGCUAGACUGCC | 0.05
GGCAGAGCUUAUCACAGCGUGGCAAACUCGCGGUGGCUAGACUGCC | 0.04
GGCAGAGCUUAACCGAGCGUGGCAAAGUGGCUGUGGCUAGACUGUC | 0.01
GGCAGAGCUUAACCCAGCGUGGCAAAGUGGGUGUGGCUAGACUGCC | 0.01
GGCAGAGCUUAACCCAGCGUGGCAAAGUGCCUGUGGCUAGAUUGCC | 0.05
GGCAGAGCUUAACGCAGCGUGGCAAAGUGGCUGUGGCUUGACUGCC | 0.95
GGCAGAGCUUAACGCAGGGUGGCAAAGUGGCUGUGGCUAGACUGCC | 0.02
GGCAGAGCUUAACGCAGCGUGGCAAAUUGGCUGUGGAUAGACUGCC | 0.03
GGCAGAGCUUAACUCAGCGUGGCUAAGUCGCUGUGGCUAGACUGCC | 0.07
GGCAGAGCUUAACUCAGCGUGGCAGAAUGGCUGUGGGUAGACUGCC | 0.02
GGCAGAGCUUAACUCAGAGUGGCAAAGUGGCUCUGGCUAGAAUGCC | 0.03
GGCAGAGCUUAACACCGCGUGGCAUAGUGGCUGUGGUUAGAGUGCC | 0.04

Variant | self-cleavage
GGCAGAGCUUAACACCGCGUGGCAAAGUGGCUGUAGCUAAACUGCC | 0
GGCAGAGCUUAACACCGCGUGGCAAAGUGGCUGCGGCUAGUCUGCC | 0.11
GGCAGAGCUUAACACGGCUUGGCAAAGUGGCUGUGGCUAGACUACC | 0.05
GGCAGAGCUUAACACGGCGUGGCAAAGUAGCUGUGGCUAGACCGCC | 0.02
GGCAGAGCUUAACACGGCGUGGCAAAGCGGCUGUGGCUAGACUGCC | 0.09
GGCAGAGCUUAACACGGCGUGGCAAAGUGGCUGAGGCUAGACUGUC | 0.02
GGCAGAGCUUAACACUGCGUGGCAAAGUGGGCGUGGCUAGACUGCC | 0.03
GGCAGAGCUUAACACUGCGUGGCAAAGUGGCUGUGGCUACACUGCC | 0
GGCAGAGCUUAACACAGCGUGGCCAAGUGGCUCUGGCUAGACUGCC | 0.05
GGCAGAGCUUAACACAGCGUGGCUAAUUGGCUGUGGCUAGACUGGC | 0.01
GGCAGAGCUUAACACAGCGUGGCAUAGUGGCUGUGGCUAGACUGCA | 0.22
GGCAGAGCUUAACACAGCGUGGCAUAGUAGCUGUGGCUUGACUGCC | 0.19
GGCAGAGCUUAACACAGCGUGGCAAAGUGGCUGUGGCUAGGCUUCC | 0.03
GGCAGAGCUUAACACAGCGUGGCAAAGUGGCUGUGGCUAGUCUUCC | 0.05
GGCAGAGCUUAAAACAGCGUGGCAAUGUGGCUGUGGCUAGGCUGCC | 0.02
GGCAGAGCUUAAAACAGCGUGGCAAAGUGGCUGCGGCUAGACUGCC | 0.04
GGCAGAGCUUAAGACAGCGUGGCAAUGUGGCUGUGGGUAGACUGCG | 0.02
GGCAGAGCUUAAGACAGCGUGGCAAAGUGGCUGUGACUAGACAGGC | 0.01
GGCAGAGCUUAAGACAGCGUGGCAAAGGGCCUGUGGCUAGACUGCC | 0.03
GGCAGAGCUUAAUGCAGCGUGGCAAAGUCGCUGUGGUUAGACUGCC | 0
GGCAGAGCUUAAUACAGCGUGGCAAAGUGGCUGUGGCUAGCUUGCC | 0.06
GGCAGAGCUUAAUACAGCGUGCCAAAGUGGCUGUGGCUAGACUGCC | 0.04
GGCAGAGCUUAACAAAGCGUGGCAAUGUAGCUGUGGCUAGACUGUC | 0.04

Variant | self-cleavage
GGCAGAGCUUAACAAAGCGUGGCAAAGUGGCUGUGGCUAGGCUGCC | 0.08
GGCAGAGCUUAACAAAGCAUGAUAAAGUGGCUGUGGCUAGACUGCC | 0.04
GGCAGAGCUUAACAAAGCGUGUCAAAGUGGCUAUGGCUAGAUUGCC | 0.03
GGCAGAGCUUAACAGAGCAUGGCAAGGUGGCUGUGGCUAGACUGCC | 0.03
GGCAGAGCUUAACAGAGCGUUGCAAAGUGGCUGUGGCUAGAUUGCC | 0.03
GGCAGAGCUUAACAGAGCGUGGCAAACUGGCUGUGGCUAGACUGCC | 0.04
GGCAGAGCUUAACAUAGCGUGGCAGAGUGGCUGUGGCUAGACUGCC | 0.1
GGCAGAGCUUAACAUAGGGUGGCAAAGUGGAUGUGGCUAGACUGCC | 0.04
GGCAGAGCUUAACAUAGUUUGGCAAAGUGGCUGUGGCUAGACUGCC | 0.35
GGCAGAGCUUAACAUAGCGUGGCAAAGUGGAUGUGGCUAGACUUCC | 0.05
GGCAGAGCUUAACAUAACGUGGCAAAGUGGAUGUUGCUAGACUGCC | 0.02
GGCAGAGCUUAACAUAUCGUGGUAAUGUGGCUGUGGCUAGACUGUC | 0.05
GGCAGAGCUUAACACAGAGUGGCAAAGUGGCUGUGGCUAGACUUCC | 0.01
GGCAGAGCUUAACACAGAGUGGCAAAGUGGCAGUGGCUCGACUCCC | 0
GGCAGAGCUUAACACAGGGUGGCAAAGUGGUUGUGGCUAGACUGCC | 0.02
GGCAGAGCUUAACACAGUGUGGCAAAUUGGCUGUGGCUUGACUGCC | 0.13
GGCAGAGCUUAACACAGUGAGGCAAUGUGCCUGAGGGUAGACUGCC | 0
GGCAGAGCUUAACACAGCGUGGAAAAGUGGGUGUGGCUAGACUGCC | 0.04
GGCAGAGCUUAACACAGCGUGGUAAAGUGGCUGUGGCUAGACUGAC | 0.35
GGCAGAGCUUAACACAGCGUGGUAAAGUGGCUGUGACUAGACUGCC | 0.03
GGCAGAGCUUAACACAGCGUGGUAAAGUGGCUGUGCCUAGACUCCC | 0.04
GGCAGAGCUUAACACAGCGUGGUAAAGAGGCUGUGGCUAGACUGCC | 0.29
GGCAGAGCUUAACACAGCGUGGCAAAGUGGAUCUGGCUAGACUGCC | 0.01

Variant | self-cleavage
GGCAGAGCUUAACACAGCGUGGCAAAGUGGUUGUGGAUAGACUGCC | 0.02
GGCAGAGCUUAACACAGCGUGGCAAAGUGGCUGUGGUUAGACUGAC | 0.07
GGCAGAGCUUAACACAACGUGGCAAAGUGGUUGGGGCUAGACUGCC | 0.01
GGCAGAGCUUAACACAACGUGCGAAAGUGGCUGUGGCUAGACUCCC | 0.02
GGCAGAGCUUAACACAACGUGUCAAAGUGGCUGUGGCUAGACUGCC | 0.74
GGCAGAGCUUAACACAACGGGGUAAAGUGGCUGUGGCUAGACUGCC | 0.03
GGCAGAGCUUAACACACCGUGGCAAAGUUGCUGUGACUAGACUGCC | 0.03
GGCAGAGCUUAACACAUCGUGGCCAAGUGGCUGUGGCUAUACUGCC | 0.02
GGCAGAGCUUAACACAUCGUGGCUAAGUGGCUGUGGCCAGAAUGCC | 0.03
GGCAGAGCUUAACACAUCGUGGCACAAUGGAUGUGGCUAGACUGCC | 0.53
GGCAGAGCUUAACACAUCGUGUCAAAGGGGCUGUGGCUAGACUGCC | 0.16
GGCAGAGCUUAACACAGCAUGGCAAGGUGGCAGUGGCUAGACUGCC | 0.05
GGCAGAGCUUAACACAGCCUGGUAAAGUAGCUCUGGCUAGACUGCC | 0.04
GGCAGAGCUUAACACAGCCUGGCAAAGUGGCUGUUGCUACAUUGCC | 0.08
GGCAGAGCUUAACACAGCUUGGUAAAGUGGCUGUGACUAGACUGCC | 0.04
GGCAGAGCUUAACACAGCGUAGCAAGGUGGCUGUGGCUAGACUGCC | 0.46
GGCAGAGCUUAACACAGCGUACCAAGGUGCCUGUGGCUAGACUGCC | 0.46
GGCAGAGCUUAACACAGCGUCGCAAAGUGGCUGUGGCUGGACUGCC | 0.11
GGCAGAGCUUAACACAGCGUUGCAAAAUGGCUGUGGCUAUACUGCC | 0
GGCAGAGCUUAACACAGCGUUGCAAAGUGGCUGGCGCUAGACUUCC | 0.04
GGCAGAGCUUAACACAGCGUGACAAACUGGCUGUGGCUAGACUGCU | 0.31
GGCAGAGCUUAACACAGCGUGACAAAGUGGCUGAGGGUAGACCGCC | 0.04
GGCAGAGCUUAACACAGCGUGCCAAAGUGGCUGUGGCUAGAAUGCC | 0.06

Variant | self-cleavage
GGCAGAGCUUAACACAGCGUGUUAUAGUGGCUGUGGCUAGACUGCC | 1.67
GGCAGAGCUUAACACAGCGUGUCAAAGUAGCUGUGGCUAGACUGCC | 0.21
GGCAGAGCUUAACACAGCGUGGCAAACUGGCUGUGGCUAGACUGAC | 0.03
GGCAGAGCUUAACACAGCGUGGCAAAGUAGCUGUGGCUCGACUGCC | 0.12
GGCAGAGCUUAACACAGCGUGGCAAAGUACCUGUGGGUAGACUGCC | 0.04
GGCAGAGCUUAACACAGCGUGGCAAAGUAUCUGUGGUUAGACUGCC | 0.02
GGCAGAGCUUAACACAGCGUGGCAAAGUUGUUGGGUCUAAACUGCC | 0.04
GGCAGAGCUUAACACAGCGUGGCAAAGUUUCUGUGGCUAGACUUCC | 0.19
GGCAGAGCUUAACACAGCGUGGCAAAGUUGCUGUGGCUAAACUGGC | 0.05
GGCAGAGCUUAACACAGCGUGGCAAAGUGGCUAUGGUUAGACUACC | 0.02
GGCAGAGCUUAACACAGCGUGGCAAAGUGGCUCUGGCAAGACUGCC | 0.04
GGCAGAGCUUAACACAGCGUGGCAAAGUGGCUGUUUCUAGAAUACC | 0.01
GGCAGAGCUUAACACAGCGUGGCAAAGUGGCUGUGACUAGACUGAC | 0.01
GGCAGAGCUUAACACAGCGUGGCAAAGUGGCUGUGGCUAAACUGCA | 0.05
GGCAGAGCUUAACACAGCGUGGCAAAGUGGCUGUGGCUAAACUGCU | 0.02
GGCAGAGCUUAACACAGCGAGGCAAAGUGGGUGAGGCUAGACUGCC | 0.05
GGCAGAGCUUAACACAGCGAGGCAAAGCGGCGGUGGCUAGACUGCC | 0.02
GGCAGAGCUUAACACAGCGGGGCAAAGUGUCUGUGGCUACACUGCC | 0.01
GGCAGAGCUUAACACAGCGUGGCAAAGAGGCUGUGGCUAGACUGGC | 0.37
GGCAGAGCUUAACACAGCGUGGCAAAGAGGCUGUAGCCAGACUGCC | 0.01
